Source: patent US6706740B2, “Fungicidal heterocyclic aromatic amides and their compositions, methods of use and preparation” (Dow AgroSciences LLC, priority 1999, dated 2004)

System: Plasmopara viticola—PLASVI
Test: whole plant or invertebrate
Type: in vivo
Conditions: Plasmopara, 24 h, read-out: PLASVI in vivo 1 Day Protectant, 100 ppm, 24 hour protectant, grape; control of fungal infection vs untreated plants

Row | Compound | pest or weed control at 100 ppm
1 | COc1ccnc(C(=O)NCC2COCCOCCOCCOCCO2)c1O (stereo not drawn) [Compound 245] | 25 to 74%
2 | COc1ccnc(C(=O)NC2CCCC(Sc3ccc(C(F)(F)F)cn3)C2)c1O (stereo not drawn) [Compound 274] | 25 to 74%
3 | O=C(Nc1nccs1)c1ncccc1O [Compound 235] | < 25%
4 | COc1ccnc(C(=O)NC2CCCC2=O)c1O (stereo not drawn) [Compound 249] | < 25%
5 | CC(NC(=O)c1ncccc1O)c1ccc(Cl)cc1 (stereo not drawn) [Compound 230] | < 25%
6 | COc1ccnc(C(=O)N[C@H]2CO[C@@](C)(C(C)CC3=C(C)CCCC3(C)C)OC2)c1O (stereo partly drawn) [Compound 318] | 25 to 74%
7 | COc1ccnc(C(=O)NC2CC(C)(C)/C=C\CC(C)(C)C2)c1O (stereo not drawn) [Compound 283] | < 25%
8 | O=C(NCC1CCCCC1)c1ncccc1O [Compound 202] | < 25%
9 | COc1ccnc(C(=O)N[C@H]2CC[C@H](Oc3ccc(C(F)(F)F)cc3)CC2)c1O [Compound 270] | 25 to 74%
10 | O=C(NCc1ccc(Cl)c(Cl)c1)c1ncccc1O [Compound 221] | < 25%
11 | Cc1cc(C)cc(NC(=O)c2ncccc2O)c1 [Compound 215] | < 25%
12 | COc1ccnc(C(=O)NC2CCCC2O)c1O (stereo not drawn) [Compound 248] | < 25%
13 | CCC1(C)OCC(NC(=O)c2nccc(OC)c2O)CO1 (stereo not drawn) [Compound 314] | 25 to 74%
14 | COCCCc1ccc2c(c1)OC(C)C(NC(=O)c1nccc(OC)c1O)C2=O (stereo not drawn) [Compound 322] | < 25%
15 | COc1ccnc(C(=O)N[C@H]2CO[C@](C)(C(C)CC3=C(C)CCCC3(C)C)OC2)c1O (stereo partly drawn) [Compound 319] | 25 to 74%
16 | Cc1ccnc(C(=O)Nc2ccc(Oc3cccc(C(F)(F)F)c3)cc2)c1O [Compound 238] | < 25%
17 | COc1ccnc(C(=O)N[C@H]2CC[C@H]3C4CCC(CC4)[C@H]3C2=O)c1O [Compound 292] | < 25%

Same assay, conditions: Plasmopara, 24 h, read-out: PLASVI in vivo 1 Day Protectant, 100 ppm, grape, 24 hour protectant, % control of fungal infection vs untreated plants

Row | Compound | pest or weed control at 100 ppm
18 | CCCC(=O)Oc1c(OC)ccnc1C(=O)N[C@H]1COC(=O)[C@H](Cc2ccccc2)[C@@H](OC(=O)C(C)C)[C@H](C)OC1=O [Compound 599] | < 25%
19 | COc1ccnc(C(=O)N[C@H]2COC(=O)[C@H](Cc3ccccc3)[C@@H](OC(=O)C(C)C)[C@H](C)OC2=O)c1OC(=O)CC(C)(C)C [Compound 610] | < 25%
20 | COc1ccnc(C(=O)N[C@H]2COC(=O)[C@H](Cc3ccccc3)[C@@H](OC(=O)C(C)C)[C@H](C)OC2=O)c1OC(=O)c1ccc(Cl)nc1 [Compound 669] | < 25%
21 | COc1ccnc(C(=O)N[C@H]2COC(=O)[C@H](Cc3ccccc3)[C@@H](OC(=O)C(C)C)[C@H](C)OC2=O)c1OC(=O)c1cnc(Cl)c(Cl)c1 [Compound 670] | < 25%
22 | COc1ccnc(C(=O)N[C@H]2COC(=O)[C@H](Cc3ccccc3)[C@@H](OC(=O)C(C)C)[C@H](C)OC2=O)c1OC(=O)OCCBr [Compound 692] | < 25%
23 | COc1ccnc(C(=O)N[C@H]2COC(=O)[C@H](Cc3ccccc3)[C@@H](OC(=O)C(C)C)[C@H](C)OC2=O)c1OC(=O)C(C)C [Compound 602] | < 25%

Same assay, conditions: Plasmopara, 24 h, read-out: PLASVI in vivo 1 Day Protectant, 100 ppm, grape, 24 hour protectant; control of fungal infection vs untreated plants

Row | Compound | pest or weed control at 100 ppm
24 | COC(=O)C(COC(=O)COCc1ccccc1)NC(=O)c1nccc(OC)c1O (stereo not drawn) [Compound 346] | 25 to 74%
25 | COc1ccnc(C(=O)NC(C(=O)OCC(C)C)C(C)OC(=O)C(C)Cc2ccccc2)c1O (stereo not drawn) [Compound 360] | 25 to 74%
26 | COc1ccnc(C(=O)Nc2ccc(OCc3ccc(C(F)(F)F)cc3)cc2)c1O [Compound 448] | < 25%
27 | COC(=O)C(COC(=O)C(COC(=O)C(C)C)Cc1ccccc1)NC(=O)c1nccc(OC)c1O (stereo not drawn) [Compound 349] | 25 to 74%
28 | COc1cccc(Oc2cccc(NC(=O)c3nccc(OC)c3O)c2)c1 [Compound 431] | < 25%
29 | COc1ccnc(C(=O)N[C@H]2COC(=O)[C@H](Cc3ccccc3)[C@@H](OC(=O)Cc3ccccc3)[C@H](C)OC2=O)c1O [Compound 395] | < 25%
30 | COCc1cc(Oc2ccc(C(F)(F)F)cc2)ccc1NC(=O)c1nccc(OC)c1O [Compound 426] | 25 to 74%
31 | COc1ccnc(C(=O)Nc2cccc(Oc3ccc(C(F)(F)F)cc3)c2)c1O [Compound 423] | < 25%
32 | COc1ccnc(C(=O)Nc2ccccc2Oc2cccc(Cl)c2)c1O [Compound 437] | < 25%
33 | COc1ccnc(C(=O)NC(COC(=O)C(Cc2ccccc2)C(C)OC(=O)C(C)C)C(=O)OC(C)C)c1O (stereo not drawn) [Compound 355] | 25 to 74%
34 | COC(=O)C(COC(=O)C(C)Cc1ccccc1)NC(=O)c1nccc(OC)c1O (stereo not drawn) [Compound 345] | 25 to 74%
35 | COc1ccnc(C(=O)Nc2ccccc2Oc2ccc(Cl)cc2)c1O [Compound 438] | < 25%
36 | COc1ccnc(C(=O)N[C@@H](Cc2ccc(OCc3ccccc3)cc2)C(=O)OCc2ccccc2)c1O [Compound 339] | < 25%
37 | COc1ccnc(C(=O)Nc2cccc(Sc3ccc(C(F)(F)F)cc3)c2)c1O [Compound 444] | 25 to 74%
38 | COc1ccnc(C(=O)Nc2cc(C)c(OC(=O)C(C)C)c(C)c2)c1O [Compound 455] | 25 to 74%
39 | COC(=O)C(COC(=O)CCc1ccccc1)NC(=O)c1nccc(OC)c1O (stereo not drawn) [Compound 344] | < 25%
40 | COc1ccnc(C(=O)Nc2cccc(Oc3ccccc3C)c2)c1O [Compound 412] | < 25%
41 | COC(=O)C(CO)NC(=O)c1nccc(OC)c1O (stereo not drawn) [Compound 340] | < 25%
42 | COc1ccccc1Oc1cccc(NC(=O)c2nccc(OC)c2O)c1 [Compound 430] | < 25%

Same assay, conditions: Plasmopara, 24 h, read-out: PLASVI in vivo 1 Day Protectant, grape plants, 100 ppm, 24 hour protectant; control of fungal infection vs untreated plants

Row | Compound | pest or weed control at 100 ppm
43 | COc1ccnc(C(=O)NC2CC(C)(C)/C=C\CC(C)(C)C2)c1OC(C)=O (stereo not drawn) [Compound 580] | < 25%
44 | CCOc1ccnc(C(=O)NC2CC(C)(C)CC(C)(C)C2)c1O [Compound 474] | < 25%
45 | COc1ccnc(C(=O)Nc2ccc(Oc3ccnc(C(F)(F)F)c3)cc2)c1O [Compound 465] | < 25%
46 | Cc1ccc(C(=O)N[C@H]2COC(=O)[C@H](Cc3ccccc3)[C@@H](OC(=O)C(C)C)[C@H](C)OC2=O)c(O)n1 [Compound 525] | < 25%
47 | COc1ccnc(C(=O)NC2CC(C)(C)C(=O)C(C)(C)C2)c1OC(C)=O [Compound 575] | < 25%
48 | O=C(NCc1ccc(Cl)cc1)c1ccncc1O [Compound 507] | 25 to 74%
49 | Cc1ncc(C(=O)NC2CC(C)(C)CC(C)(C)C2)c(O)n1 [Compound 541] | < 25%
50 | COc1ccnc(C(=O)N[C@H]2CO[C@H](C(C)Cc3ccc(C(C)(C)C)cc3)OC2)c1OC(C)=O (stereo partly drawn) [Compound 594] | 25 to 74%
51 | O=C(Nc1cccc(Oc2ccccc2)c1)c1cccnc1O [Compound 521] | < 25%
52 | CC1(C)CC(NC(=O)c2nnc(O)nc2O)CC(C)(C)C1 [Compound 543] | < 25%
53 | COc1ccc(O)c(C(=O)NC2COC(=O)[C@H](Cc3ccccc3)[C@@H](OC(=O)C(C)C)[C@H](C)OC2=O)n1 (stereo partly drawn) [Compound 481] | < 25%
54 | CC1(C)CC(NC(=O)c2cn(-c3ccccc3)nc2O)CC(C)(C)C1 [Compound 559] | < 25%
